# Experimental data as given in the supplement of paper PMC8728848.
# The list shows a part of the results.
# B1: BC2LB (Burholderia cenocepacia), B4EH85_BURCJ (protein)
# chain: MGSSHHHHHHSSGENLYFQGHMSQPFTHDDLYALLQLAGNDATAVQANGDQAVLDRMRQFMTAQLVEKLPQYDVFVDIATIPYSFDVGSWQNKVKTDAAGEVVACTVTWAGAPGVLPGAAAKFGVGAVVNYFSKATPH
# Assays:
# Experiment in all cases: glycan array binding signal (z-score within array); higher = stronger binding
# Settings in all cases: glycan notation: IUPAC condensed, linker removed
# [1] = biological target: Fuc(a1-2)[Gal(a1-3)]Gal(b1-4)GlcNAc(b1-2)Man(a1-3)[Fuc(a1-2)[Gal(a1-3)]Gal(b1-4)GlcNAc(b1-2)Man(a1-6)]Man(b1-4)GlcNAc(b1-4)GlcNAc
# In short: (§1)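 Columns mapping to the same glycan were averaged after glycan names were converted to IUPAC-condensed notation. The data come from 3228 arrays in the Consortium for Functional Glycomics database, limited to those with an available protein sequence. Binding is reported as a within-array Z-score averaged across arrays of one protein sequence and across linkers.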
# [2] = biological target: Fuc(a1-2)[Gal(a1-3)]Gal(b1-4)GlcNAc(b1-2)Man(a1-3)[Fuc(a1-2)[Gal(a1-3)]Gal(b1-4)GlcNAc(b1-2)Man(a1-6)]Man(b1-4)GlcNAc(b1-4)[Fuc(a1-6)]GlcNAc
# In short: as §1
# [3] = biological target: Fuc(a1-2)[Gal(a1-3)]Gal(b1-4)GlcNAc(b1-3)GalNAc
# In short: as §1
# [4] = biological target: Fuc(a1-2)[Gal(a1-3)]Gal(b1-4)GlcNAc(b1-3)[Fuc(a1-2)[Gal(a1-3)]Gal(b1-4)GlcNAc(b1-6)]GalNAc
# In short: as §1
# [5] = biological target: Fuc(a1-2)[Gal(a1-3)]Gal(b1-4)GlcNAc(b1-6)GalNAc
# In short: as §1
# [6] = biological target: Fuc(a1-2)[Gal(a1-3)]Gal(b1-4)[Fuc(a1-3)]Glc
# In short: as §1
# [7] = biological target: Fuc(a1-2)[Gal(a1-3)]Gal(b1-4)[Fuc(a1-3)]GlcNAc
# In short: as §1
# [8] = biological target: Fuc(a1-2)[Gal(a1-3)]Gal(b1-4)[Fuc(a1-3)]GlcNAc(b1-3)GalNAc
# In short: as §1
# [9] = biological target: Fuc(a1-2)[Gal(a1-4)]Gal(b1-4)GlcNAc
# In short: as §1
# [10] = biological target: Fuc(a1-2)[GalNAc(a1-3)]Gal
# In short: as §1
# [11] = biological target: Fuc(a1-2)[GalNAc(a1-3)]Gal(b1-3)GalNAc(a1-3)[Fuc(a1-2)]Gal(b1-4)GlcNAc
# In short: as §1
# [12] = biological target: Fuc(a1-2)[GalNAc(a1-3)]Gal(b1-3)GalNAc(b1-3)Gal(a1-4)Gal(b1-4)Glc
# In short: as §1
# [13] = biological target: Fuc(a1-2)[GalNAc(a1-3)]Gal(b1-3)GlcNAc
# In short: as §1
# [14] = biological target: Fuc(a1-2)[GalNAc(a1-3)]Gal(b1-3)GlcNAc(b1-2)Man(a1-3)[Fuc(a1-2)[GalNAc(a1-3)]Gal(b1-3)GlcNAc(b1-2)Man(a1-6)]Man(b1-4)GlcNAc(b1-4)GlcNAc
# In short: as §1
# [15] = biological target: Fuc(a1-2)[GalNAc(a1-3)]Gal(b1-3)GlcNAc(b1-2)Man(a1-3)[Fuc(a1-2)[GalNAc(a1-3)]Gal(b1-3)GlcNAc(b1-2)Man(a1-6)]Man(b1-4)GlcNAc(b1-4)[Fuc(a1-6)]GlcNAc
# In short: as §1
# [16] = biological target: Fuc(a1-2)[GalNAc(a1-3)]Gal(b1-3)GlcNAc(b1-3)GalNAc
# In short: as §1
# [17] = biological target: Fuc(a1-2)[GalNAc(a1-3)]Gal(b1-3)GlcNAc(b1-6)GalNAc
# In short: as §1
# [18] = biological target: Fuc(a1-2)[GalNAc(a1-3)]Gal(b1-4)Glc
# In short: as §1
# [19] = biological target: Fuc(a1-2)[GalNAc(a1-3)]Gal(b1-4)GlcNAc
# In short: as §1
# [20] = biological target: Fuc(a1-2)[GalNAc(a1-3)]Gal(b1-4)GlcNAc(b1-2)Man
# In short: as §1
# [21] = biological target: Fuc(a1-2)[GalNAc(a1-3)]Gal(b1-4)GlcNAc(b1-2)Man(a1-3)[Fuc(a1-2)[GalNAc(a1-3)]Gal(b1-4)GlcNAc(b1-2)Man(a1-6)]Man(b1-4)GlcNAc(b1-4)GlcNAc
# In short: as §1
# [22] = biological target: Fuc(a1-2)[GalNAc(a1-3)]Gal(b1-4)GlcNAc(b1-2)Man(a1-3)[Fuc(a1-2)[GalNAc(a1-3)]Gal(b1-4)GlcNAc(b1-2)Man(a1-6)]Man(b1-4)GlcNAc(b1-4)[Fuc(a1-6)]GlcNAc
# In short: as §1
# [23] = biological target: Fuc(a1-2)[GalNAc(a1-3)]Gal(b1-4)GlcNAc(b1-3)Gal(b1-4)GlcNAc
# In short: as §1
# [24] = biological target: Fuc(a1-2)[GalNAc(a1-3)]Gal(b1-4)GlcNAc(b1-3)Gal(b1-4)GlcNAc(b1-3)Gal(b1-4)GlcNAc
# In short: as §1
# [25] = biological target: Fuc(a1-2)[GalNAc(a1-3)]Gal(b1-4)GlcNAc(b1-3)GalNAc
# In short: as §1
# [26] = biological target: Fuc(a1-2)[GalNAc(a1-3)]Gal(b1-4)GlcNAc(b1-3)[Fuc(a1-2)[GalNAc(a1-3)]Gal(b1-4)GlcNAc(b1-6)]GalNAc
# In short: as §1
# [27] = biological target: Fuc(a1-2)[GalNAc(a1-3)]Gal(b1-4)GlcNAc(b1-6)GalNAc
# In short: as §1
# [28] = biological target: Fuc(a1-2)[GalNAc(a1-3)]Gal(b1-4)[Fuc(a1-3)]GlcNAc
# In short: as §1
# [29] = biological target: Fuc(a1-2)[GalNAc(a1-3)]Gal(b1-4)[Fuc(a1-3)]GlcNAc(b1-3)GalNAc
# In short: as §1
# [30] = biological target: Fuc(a1-2)[GalNAc(a1-4)]Gal(b1-4)GlcNAc
# In short: as §1
# [31] = biological target: Fuc(a1-2)[GalNAc(b1-3)]Gal
# In short: as §1
# [32] = biological target: Fuc(a1-3)GlcNAc
# In short: as §1
# [33] = biological target: Fuc(a1-3)[Gal(b1-4)]Glc6S
# In short: as §1
# [34] = biological target: Fuc(a1-3)[Gal(b1-4)]GlcNAc
# In short: as §1
# [35] = biological target: Fuc(a1-3)[Gal(b1-4)]GlcNAc(b1-2)Man
# In short: as §1
# [36] = biological target: Fuc(a1-3)[Gal(b1-4)]GlcNAc(b1-2)Man(a1-3)[Fuc(a1-3)[Gal(b1-4)]GlcNAc(b1-2)Man(a1-6)]Man(b1-4)GlcNAc(b1-4)GlcNAc
# In short: as §1
# [37] = biological target: Fuc(a1-3)[Gal(b1-4)]GlcNAc(b1-2)Man(a1-3)[Fuc(a1-3)[Gal(b1-4)]GlcNAc(b1-2)Man(a1-6)]Man(b1-4)GlcNAc(b1-4)[Fuc(a1-6)]GlcNAc
# In short: as §1
# [38] = biological target: Fuc(a1-3)[Gal(b1-4)]GlcNAc(b1-3)Gal(b1-3)[Fuc(a1-4)]GlcNAc
# In short: as §1
# [39] = biological target: Fuc(a1-3)[Gal(b1-4)]GlcNAc(b1-3)Gal(b1-4)[Fuc(a1-3)]GlcNAc
# In short: as §1
# [40] = biological target: Fuc(a1-3)[Gal(b1-4)]GlcNAc(b1-3)Gal(b1-4)[Fuc(a1-3)]GlcNAc(b1-3)Gal(b1-4)[Fuc(a1-3)]GlcNAc
# In short: as §1
# [41] = biological target: Fuc(a1-3)[Gal(b1-4)]GlcNAc(b1-3)GalNAc
# In short: as §1
# [42] = biological target: Fuc(a1-3)[Gal(b1-4)]GlcNAc(b1-6)GalNAc
# In short: as §1
# [43] = biological target: Fuc(a1-3)[Gal(b1-4)]GlcNAc(b1-6)[Gal(b1-3)GlcNAc(b1-3)]Gal(b1-4)Glc
# In short: as §1
# [44] = biological target: Fuc(a1-3)[Gal(b1-4)]GlcNAc6S
# In short: as §1
# [45] = biological target: Fuc(a1-3)[Gal3S(b1-4)]Glc
# In short: as §1
# [46] = biological target: Fuc(a1-3)[Gal3S(b1-4)]GlcNAc
# In short: as §1
# [47] = biological target: Fuc(a1-3)[Gal3S(b1-4)]GlcNAc6S
# In short: as §1
# [48] = biological target: Fuc(a1-3)[GalNAc(b1-4)]GlcNAc
# In short: as §1
# [49] = biological target: Fuc(a1-3)[GalNAc(b1-4)]GlcNAc6S
# In short: as §1
# [50] = biological target: Fuc(a1-4)GlcNAc
# In short: as §1
# [51] = biological target: Fuc(b1-3)GlcNAc
# In short: as §1
# [52] = biological target: Gal(a1-2)Gal
# In short: as §1
# [53] = biological target: Gal(a1-3)Gal
# In short: as §1
# [54] = biological target: Gal(a1-3)Gal(b1-3)GlcNAc
# In short: as §1
# [55] = biological target: Gal(a1-3)Gal(b1-3)GlcNAc(b1-2)Man
# In short: as §1
# [56] = biological target: Gal(a1-3)Gal(b1-3)GlcNAc(b1-2)Man(a1-3)[Gal(a1-3)Gal(b1-3)GlcNAc(b1-2)Man(a1-6)]Man(b1-4)GlcNAc(b1-4)GlcNAc
# In short: as §1
# [57] = biological target: Gal(a1-3)Gal(b1-3)GlcNAc(b1-3)GalNAc
# In short: as §1
# [58] = biological target: Gal(a1-3)Gal(b1-3)GlcNAc(b1-6)GalNAc
# In short: as §1
# [59] = biological target: Gal(a1-3)Gal(b1-3)[Fuc(a1-4)]GlcNAc(b1-2)Man(a1-3)[Gal(a1-3)Gal(b1-3)[Fuc(a1-4)]GlcNAc(b1-2)Man(a1-6)]Man(b1-4)GlcNAc(b1-4)GlcNAc
# In short: as §1
# [60] = biological target: Gal(a1-3)Gal(b1-4)Glc
# In short: as §1
binder,measurement,setting,value
B1,glycan array binding signal (z-score),[1],-0.213
same,glycan array binding signal (z-score),[2],-0.297
same,glycan array binding signal (z-score),[3],-0.273
same,glycan array binding signal (z-score),[4],6.98
same,glycan array binding signal (z-score),[5],-0.305
same,glycan array binding signal (z-score),[6],-0.279
same,glycan array binding signal (z-score),[7],-0.01
same,glycan array binding signal (z-score),[8],-0.279
same,glycan array binding signal (z-score),[9],-0.187
same,glycan array binding signal (z-score),[10],-0.228
same,glycan array binding signal (z-score),[11],-0.281
same,glycan array binding signal (z-score),[12],-0.172
same,glycan array binding signal (z-score),[13],-0.249
same,glycan array binding signal (z-score),[14],-0.203
same,glycan array binding signal (z-score),[15],-0.164
same,glycan array binding signal (z-score),[16],-0.048
same,glycan array binding signal (z-score),[17],7.53
same,glycan array binding signal (z-score),[18],-0.25
same,glycan array binding signal (z-score),[19],-0.261
same,glycan array binding signal (z-score),[20],-0.324
same,glycan array binding signal (z-score),[21],-0.13
same,glycan array binding signal (z-score),[22],-0.205
same,glycan array binding signal (z-score),[23],-0.305
same,glycan array binding signal (z-score),[24],-0.176
same,glycan array binding signal (z-score),[25],-0.332
same,glycan array binding signal (z-score),[26],-0.198
same,glycan array binding signal (z-score),[27],-0.328
same,glycan array binding signal (z-score),[28],-0.178
same,glycan array binding signal (z-score),[29],-0.157
same,glycan array binding signal (z-score),[30],-0.275
same,glycan array binding signal (z-score),[31],-0.359
same,glycan array binding signal (z-score),[32],0.096
same,glycan array binding signal (z-score),[33],0.068
same,glycan array binding signal (z-score),[34],-0.296
same,glycan array binding signal (z-score),[35],-0.077
same,glycan array binding signal (z-score),[36],0.016
same,glycan array binding signal (z-score),[37],-0.1
same,glycan array binding signal (z-score),[38],-0.314
same,glycan array binding signal (z-score),[39],0.662
same,glycan array binding signal (z-score),[40],-0.356
same,glycan array binding signal (z-score),[41],0.001
same,glycan array binding signal (z-score),[42],-0.077
same,glycan array binding signal (z-score),[43],-0.215
same,glycan array binding signal (z-score),[44],-0.173
same,glycan array binding signal (z-score),[45],0.255
same,glycan array binding signal (z-score),[46],0.129
same,glycan array binding signal (z-score),[47],0.079
same,glycan array binding signal (z-score),[48],0.115
same,glycan array binding signal (z-score),[49],-0.312
same,glycan array binding signal (z-score),[50],2.88
same,glycan array binding signal (z-score),[51],1.63
same,glycan array binding signal (z-score),[52],0.111
same,glycan array binding signal (z-score),[53],-0.295
same,glycan array binding signal (z-score),[54],-0.247
same,glycan array binding signal (z-score),[55],-0.192
same,glycan array binding signal (z-score),[56],-0.246
same,glycan array binding signal (z-score),[57],0.797
same,glycan array binding signal (z-score),[58],-0.293
same,glycan array binding signal (z-score),[59],-0.183
same,glycan array binding signal (z-score),[60],-0.189
